These are yes or no findings as the source states them, for the method shown. Binding seen in cells or lysates may run through a third protein. Some results given as binding are weak or reduced against the parent protein; the word gives no strength. For some assays here: Sequences can lack the tags named with a protein.

Sequences of proteins named here, by UniProt entry; tags and fusion partners are left off.
UniProt P05804: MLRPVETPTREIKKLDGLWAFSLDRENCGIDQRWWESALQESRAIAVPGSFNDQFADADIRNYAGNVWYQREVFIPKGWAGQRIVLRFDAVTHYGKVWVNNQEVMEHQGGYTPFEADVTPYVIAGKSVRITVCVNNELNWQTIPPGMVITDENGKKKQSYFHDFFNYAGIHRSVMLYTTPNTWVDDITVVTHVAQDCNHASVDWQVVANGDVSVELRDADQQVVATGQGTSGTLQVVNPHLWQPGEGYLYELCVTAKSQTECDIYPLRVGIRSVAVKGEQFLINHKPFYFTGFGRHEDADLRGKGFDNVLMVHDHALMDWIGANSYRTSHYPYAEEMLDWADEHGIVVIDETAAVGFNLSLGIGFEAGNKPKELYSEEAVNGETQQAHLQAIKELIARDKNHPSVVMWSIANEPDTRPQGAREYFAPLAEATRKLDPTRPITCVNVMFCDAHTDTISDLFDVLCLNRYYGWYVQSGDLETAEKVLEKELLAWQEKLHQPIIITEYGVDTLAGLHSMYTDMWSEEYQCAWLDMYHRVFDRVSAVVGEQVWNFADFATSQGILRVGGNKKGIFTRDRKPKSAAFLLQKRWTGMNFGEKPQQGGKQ

This passage reports binding results from paper PMC8514785.

The target in test [1] is T1, nVenus-SRFR1 (SUPPRESSOR OF rps4-RLD1) (Arabidopsis thaliana) (UniProt F4JS25).
T1 sequence: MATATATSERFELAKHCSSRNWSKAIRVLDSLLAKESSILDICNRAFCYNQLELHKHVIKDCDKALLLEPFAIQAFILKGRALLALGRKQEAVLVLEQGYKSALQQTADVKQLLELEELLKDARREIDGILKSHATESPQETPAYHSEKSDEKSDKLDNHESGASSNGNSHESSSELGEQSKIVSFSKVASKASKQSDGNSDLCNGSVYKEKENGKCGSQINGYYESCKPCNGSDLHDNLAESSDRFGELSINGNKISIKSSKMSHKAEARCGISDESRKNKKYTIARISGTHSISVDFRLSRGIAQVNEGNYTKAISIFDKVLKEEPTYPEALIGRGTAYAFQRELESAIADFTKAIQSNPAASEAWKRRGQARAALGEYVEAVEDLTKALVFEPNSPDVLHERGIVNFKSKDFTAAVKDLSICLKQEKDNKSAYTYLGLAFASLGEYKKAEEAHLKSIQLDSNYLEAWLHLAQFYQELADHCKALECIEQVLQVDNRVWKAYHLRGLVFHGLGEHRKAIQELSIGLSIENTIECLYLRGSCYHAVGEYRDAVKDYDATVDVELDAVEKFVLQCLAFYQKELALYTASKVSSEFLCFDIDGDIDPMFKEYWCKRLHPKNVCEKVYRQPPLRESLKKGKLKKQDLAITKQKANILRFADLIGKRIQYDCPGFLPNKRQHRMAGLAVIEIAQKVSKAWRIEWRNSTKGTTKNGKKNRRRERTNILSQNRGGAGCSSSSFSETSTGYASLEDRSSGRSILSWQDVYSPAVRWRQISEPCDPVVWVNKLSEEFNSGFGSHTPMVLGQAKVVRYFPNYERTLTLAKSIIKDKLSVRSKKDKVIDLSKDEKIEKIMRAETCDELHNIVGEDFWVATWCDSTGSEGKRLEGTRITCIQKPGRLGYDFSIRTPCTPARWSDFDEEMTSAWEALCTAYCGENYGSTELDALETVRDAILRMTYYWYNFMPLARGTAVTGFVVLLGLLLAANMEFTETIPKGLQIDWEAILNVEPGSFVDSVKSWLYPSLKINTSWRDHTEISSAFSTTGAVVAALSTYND
Briefly: split reporter; BiFC in N. benthamiana leaves; Agrobacterium strains with the BiFC vectors mixed at equal density and infiltrated; imaged 48 hpi by confocal microscopy (YFP reconstitution).

The target of test [2] is T2, HA-PAD4 (Arabidopsis thaliana) (UniProt Q9S745).
T2 sequence: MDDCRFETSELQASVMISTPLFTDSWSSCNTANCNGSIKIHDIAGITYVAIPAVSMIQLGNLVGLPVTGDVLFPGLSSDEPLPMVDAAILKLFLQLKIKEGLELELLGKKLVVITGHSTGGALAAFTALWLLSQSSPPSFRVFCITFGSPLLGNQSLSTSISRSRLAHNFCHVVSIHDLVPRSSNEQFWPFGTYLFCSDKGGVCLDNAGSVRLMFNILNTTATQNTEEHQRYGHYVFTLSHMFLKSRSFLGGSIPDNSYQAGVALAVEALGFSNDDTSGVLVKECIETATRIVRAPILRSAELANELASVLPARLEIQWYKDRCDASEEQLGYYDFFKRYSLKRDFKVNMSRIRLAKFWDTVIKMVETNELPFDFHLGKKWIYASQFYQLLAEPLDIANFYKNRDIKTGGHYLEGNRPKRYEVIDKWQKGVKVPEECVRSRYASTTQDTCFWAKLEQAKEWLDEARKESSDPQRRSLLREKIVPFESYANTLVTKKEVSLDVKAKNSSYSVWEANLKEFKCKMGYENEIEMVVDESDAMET
Briefly: co-IP; co-expression in agro-infiltrated N. benthamiana leaves, 48 h; RIPA buffer; lysate precleared with IgG agarose; anti-HA-conjugated beads, 3 h at 4°C; blots with anti-HA and anti-Myc.

In test [3] the target is T3, HA-SRFR1 (Arabidopsis thaliana) (UniProt F4JS25).
T3 sequence: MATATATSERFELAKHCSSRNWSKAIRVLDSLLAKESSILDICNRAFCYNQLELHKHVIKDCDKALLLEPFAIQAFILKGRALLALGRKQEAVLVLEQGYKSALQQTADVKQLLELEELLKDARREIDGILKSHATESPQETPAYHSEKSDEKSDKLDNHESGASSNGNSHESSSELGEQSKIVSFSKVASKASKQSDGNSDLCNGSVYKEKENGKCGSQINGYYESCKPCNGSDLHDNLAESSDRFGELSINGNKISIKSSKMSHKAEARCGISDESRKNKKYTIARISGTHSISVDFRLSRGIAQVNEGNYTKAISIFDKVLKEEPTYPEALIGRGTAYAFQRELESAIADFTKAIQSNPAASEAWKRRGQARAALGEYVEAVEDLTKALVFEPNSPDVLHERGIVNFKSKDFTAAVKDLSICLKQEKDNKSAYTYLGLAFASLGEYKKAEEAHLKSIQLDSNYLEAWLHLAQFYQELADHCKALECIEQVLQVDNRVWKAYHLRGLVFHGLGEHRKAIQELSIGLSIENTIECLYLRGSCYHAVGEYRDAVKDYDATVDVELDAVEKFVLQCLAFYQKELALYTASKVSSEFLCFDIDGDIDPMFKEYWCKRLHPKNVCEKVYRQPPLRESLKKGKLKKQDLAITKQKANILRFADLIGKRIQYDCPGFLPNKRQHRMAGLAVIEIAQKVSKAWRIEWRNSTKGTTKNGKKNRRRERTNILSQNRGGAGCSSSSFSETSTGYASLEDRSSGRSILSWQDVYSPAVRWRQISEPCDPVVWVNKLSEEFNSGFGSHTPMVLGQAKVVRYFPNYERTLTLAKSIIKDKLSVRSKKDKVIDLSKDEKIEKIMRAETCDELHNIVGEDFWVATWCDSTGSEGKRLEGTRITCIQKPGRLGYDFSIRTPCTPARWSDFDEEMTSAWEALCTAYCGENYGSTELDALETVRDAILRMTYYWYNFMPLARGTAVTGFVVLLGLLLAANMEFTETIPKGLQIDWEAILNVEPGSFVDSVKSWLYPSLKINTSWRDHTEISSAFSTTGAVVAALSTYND
Described as above.

For the molecule “cCFP-GUS (β-glucuronidase), negative control (from UniProt P05804 1-603) (enzyme)”, the binding entry in test [1] was “no binding”.

B1: Myc-EDS1^WT (protein, UniProt Q9XF23 1-623)
chain: MAFEALTGINGDLITRSWSASKQAYLTERYHKEEAGAVVIFAFQPSFSEKDFFDPDNKSSFGEIKLNRVQFPCMRKIGKGDVATVNEAFLKNLEAVIDPRTSFQASVEMAVRSRKQIVFTGHSSGGATAILATVWYLEKYFIRNPNVYLEPRCVTFGAPLVGDSIFSHALGREKWSRFFVNFVTRFDIVPRITLARKASVEETLPHVLAQLDPRNSSVQESEQRITEFYTSVMRDTSTVANQAVCELTGSAEAILETLSSFLELSPYRPAGTFVFSTEKRLVAVNNSDAILQMLFYTCQASDEQEWSLIPFRSIRDHHSYEELVQSMGMKLFNHLDGENSIESSLNDLGVSTRGRQYVQAALEEEKKRVENQKKIIQVIQQERFLKKLAWIEDEYKPKCQAHKNGYYDSFKVSNEENDFKANVKRAELAGVFDEVLGLLKKCQLPDEFEGDIDWIKLATRYRRLVEPLDIANYHRHLKNEDTGPYMKRGRPTRYIYAQRGYEHHILKPNGMIAEDVFWNKVNGLNLGLQLEEIQETLKNSGSECGSCFWAEVEELKGKPYEEVEVRVKTLEGMLREWITAGEVDEKEIFLEGSTFRKWWITLPKNHKSHSPLRDYMMDEITDT
For the molecule B1, the binding entry in test [2] and in test [3] was “binds” each time.

B2: Myc-EDS1^K478R (protein, UniProt Q9XF23 1-623)
chain: MAFEALTGINGDLITRSWSASKQAYLTERYHKEEAGAVVIFAFQPSFSEKDFFDPDNKSSFGEIKLNRVQFPCMRKIGKGDVATVNEAFLKNLEAVIDPRTSFQASVEMAVRSRKQIVFTGHSSGGATAILATVWYLEKYFIRNPNVYLEPRCVTFGAPLVGDSIFSHALGREKWSRFFVNFVTRFDIVPRITLARKASVEETLPHVLAQLDPRNSSVQESEQRITEFYTSVMRDTSTVANQAVCELTGSAEAILETLSSFLELSPYRPAGTFVFSTEKRLVAVNNSDAILQMLFYTCQASDEQEWSLIPFRSIRDHHSYEELVQSMGMKLFNHLDGENSIESSLNDLGVSTRGRQYVQAALEEEKKRVENQKKIIQVIQQERFLKKLAWIEDEYKPKCQAHKNGYYDSFKVSNEENDFKANVKRAELAGVFDEVLGLLKKCQLPDEFEGDIDWIKLATRYRRLVEPLDIANYHRHLRNEDTGPYMKRGRPTRYIYAQRGYEHHILKPNGMIAEDVFWNKVNGLNLGLQLEEIQETLKNSGSECGSCFWAEVEELKGKPYEEVEVRVKTLEGMLREWITAGEVDEKEIFLEGSTFRKWWITLPKNHKSHSPLRDYMMDEITDT
For B2, the results for the binding entry in test [2] and in test [3] were “binds” and “no binding”, respectively.
